Source: the RNAGym collection of RNA variant scans (doi:10.7554/elife.90254)
The source gives no read counts; variants with many changes may rest on few reads.

B1: LINE1-mini (parent)
chain: GGCAGAGCUCAACACAGCGUGGCAAAGUGGCUGUGGCUAGACUGCC

Variants of: B1
Experiment: self-cleavage, relative activity (ratio to wild type); higher = more cleavage; in vitro, sequencing; the parent is a self-cleaving ribozyme

Row | Variant | self-cleavage
1 | G2U C10G C23U G29A U32A | 0.01
2 | C3U C10A G17C G19U A25U | 0.06
3 | G2C C18G A26U | 0.14
4 | G1A A14C U38A G44A | 0.1
5 | G1A C13A C45A | 0.2
6 | A14C G33A C46G | 0.09
7 | A6U G17A C23U | 0.32
8 | G2C C15A U38G | 0.04
9 | C8A U28G U43A C45A | 0.17
10 | A16U G17U C23U A24C G29U | 0.01
11 | A16C A26U U34A G36U C46A | 0.03
12 | G1C C3G U9A C13G G19U G40A | 0.12
13 | G7C C10A G21U | 0.02
14 | A14U A16C G22U G35U | 0.07
15 | A12C C18A G19U G21A | 0
16 | A14G G17U U28G U32A U34C | 0.01
17 | C13A G21U U28C | 0.05
18 | A11U G17A C46A | 0
19 | A11U C15U C31U | 0.05
20 | A16U U20G A25G A26C G36U | 0.02
21 | G1U A11U C13G | 0.01

Row | Variant | self-cleavage
22 | C10A G27U U34G G35A | 0.01
23 | G2C A12G A14U C18A C37A | 0.03
24 | C13A G21U G33U | 0.05
25 | G1C G2U A25U G36A G44C | 0.08
26 | A6G C10A C13G C31A | 0.03
27 | G1C C10U G17C C18U G22C G33A A39C | 0
28 | G2U A16G U38A G44C | 0.03
29 | U9A G27U C42U | 0.1
30 | C18G G27C G33A C46G | 0.04
31 | G5U G36A C45U | 0.08
32 | U9G C10U C23U A24U G36C | 0.02
33 | G21U C31A G35A C45U | 0.03
34 | A4C G7C U34A | 0.02
35 | G1C U28C G40U | 0.02
36 | A6G C8G C10A A12C G30U A39C | 0.01
37 | A4U C8A C23A A24G C37A | 0.17
38 | U9C G35U C37G | 0.06
39 | A11C G22A G30C G36C G44U | 0.03
40 | G5U A14C G21A G22C G29A | 0.02
41 | G19C U20A U38A G44A | 0.02
42 | C37A G40A C46U | 0.19

Row | Variant | self-cleavage
43 | C18A U38G C42A | 0.01
44 | G17U U20C G33A G40U | 0.2
45 | A11U A24C C31U | 0.01
46 | A6G C13A A16C G40A | 0.06
47 | C3G G36U C37A | 0.1
48 | G1A G19A U20A C23U G35C | 0.07
49 | C10G A14G G19A G21U G40U | 0.01
50 | G1C A6C A16G U20A U32G C37A | 0
51 | A12C G29U G33A | 0.01
52 | G29C U34G A39G | 0.03
53 | U9A A14C C15A | 0.16
54 | C13U G22U C37A U38G | 0.03
55 | C8U C13U A14U G30U | 0.45
56 | C10A U32G G40U | 0.03
57 | C15G G22A A39C G40U | 0.06
58 | C10G G21U U34A G44U | 0.01
59 | U9A A24G G27C G33C U34C | 0.06
60 | A26G G29C C46G | 0.32
61 | A4C C13A U34G | 0.04
62 | C13U G33A C46A | 0.03
63 | G2U A24U C31A | 0.05

Row | Variant | self-cleavage
64 | U20A G40U C42U G44C | 0.08
65 | G1A C3G A14U A39G | 0.11
66 | G1U C3A A41U | 0.22
67 | G1C A6U G17A C18A A41U | 0.01
68 | U9A A26G G36A | 0.53
69 | U28C C31A G33C A39C | 0.03
70 | A14U G17U C42G | 0.09
71 | A4G C10U C18U G30C G40U A41C | 0.03
72 | U9C C10G G19U A24C G27C G40C U43G C45A | 0
73 | G2U U9G C46U | 0.02
74 | G7C C8G U28A C46U | 0.2
75 | G5C C8U U20A G22U G29A G30A A41C C42A | 0.07
76 | G22A G27U A41U | 0.54
77 | C3G C8A A16G G21U | 0.19
78 | C3U A6G C8U C46A | 0.08
79 | A24C U32G G40C C42U | 0.02
80 | G5A C10A C15A A41U | 0.05
81 | A12C G30A A41C | 0.03
82 | C3U A4U C13G A16G G35A G44A | 0.04
83 | G2U G27A C37G | 0.01
